Data taken from article PMC5735157.
These are yes or no findings as the source states them, for the method shown. For part of these data: In cells and extracts the contact can be indirect. Some results given as binding are weak or reduced against the parent protein; the word gives no strength. For part of these data: Where a sequence is shown, tags or fusion partners need not be part of it. Blank lines part the entries; values can stand above or below the molecule they belong to.

Protein sequences, listed by entry. Tags and fused reporters are not part of them.
UniProt Q13546: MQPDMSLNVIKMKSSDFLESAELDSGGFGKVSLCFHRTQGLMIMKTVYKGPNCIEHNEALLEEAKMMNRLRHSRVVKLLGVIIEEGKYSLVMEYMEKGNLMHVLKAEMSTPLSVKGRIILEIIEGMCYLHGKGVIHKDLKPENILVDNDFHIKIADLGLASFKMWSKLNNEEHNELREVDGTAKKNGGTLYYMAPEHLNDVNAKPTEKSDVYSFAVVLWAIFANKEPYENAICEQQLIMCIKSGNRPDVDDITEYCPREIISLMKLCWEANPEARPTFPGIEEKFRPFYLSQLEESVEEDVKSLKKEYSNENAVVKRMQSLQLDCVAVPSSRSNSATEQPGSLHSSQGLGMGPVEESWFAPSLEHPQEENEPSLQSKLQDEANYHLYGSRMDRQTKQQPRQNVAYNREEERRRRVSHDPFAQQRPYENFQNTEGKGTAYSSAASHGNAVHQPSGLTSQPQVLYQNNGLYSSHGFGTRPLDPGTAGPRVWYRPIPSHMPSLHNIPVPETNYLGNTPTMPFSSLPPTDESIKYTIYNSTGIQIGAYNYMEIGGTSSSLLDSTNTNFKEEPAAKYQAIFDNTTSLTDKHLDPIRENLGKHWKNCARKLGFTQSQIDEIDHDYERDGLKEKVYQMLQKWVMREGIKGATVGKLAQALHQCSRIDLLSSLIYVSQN
UniProt O88522: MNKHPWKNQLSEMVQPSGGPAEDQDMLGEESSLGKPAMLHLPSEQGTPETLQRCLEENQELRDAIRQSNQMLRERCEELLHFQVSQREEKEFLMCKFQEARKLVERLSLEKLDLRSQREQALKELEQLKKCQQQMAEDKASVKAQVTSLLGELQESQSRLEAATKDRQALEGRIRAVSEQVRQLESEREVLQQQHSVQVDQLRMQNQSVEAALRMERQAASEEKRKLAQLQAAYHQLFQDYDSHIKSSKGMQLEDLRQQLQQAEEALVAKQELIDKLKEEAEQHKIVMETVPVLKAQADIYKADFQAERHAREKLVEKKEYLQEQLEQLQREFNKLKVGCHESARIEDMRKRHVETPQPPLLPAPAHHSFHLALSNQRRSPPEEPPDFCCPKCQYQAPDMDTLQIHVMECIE

How the values were obtained:
[1] = target: T1, angiopoietin-like 8 (ANGPTL8), full length, Flag- or HA-tagged, overexpressed (human) (UniProt Q6UXH0); assay: co-IP; transfected HEK293T cells (mammalian overexpression system), with or without TNFα; lysis in 20 mM Tris-HCl pH 7.4, 150 mM NaCl, 1 mM EDTA, 1% Triton X-100; 0.5 μg antibody and GammaBind Plus-Sepharose, 4 °C, 4 h; washes with 500 mM NaCl; immunoblot
T1 sequence: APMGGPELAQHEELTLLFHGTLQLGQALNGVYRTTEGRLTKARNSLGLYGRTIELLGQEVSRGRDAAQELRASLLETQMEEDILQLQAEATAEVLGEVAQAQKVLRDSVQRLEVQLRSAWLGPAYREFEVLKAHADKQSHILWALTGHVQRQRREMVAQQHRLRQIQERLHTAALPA

[2] = target: T2, ANGPTL8-Δ26–70 truncation mutant (human) (UniProt Q6UXH0); assay: as above
T2 sequence: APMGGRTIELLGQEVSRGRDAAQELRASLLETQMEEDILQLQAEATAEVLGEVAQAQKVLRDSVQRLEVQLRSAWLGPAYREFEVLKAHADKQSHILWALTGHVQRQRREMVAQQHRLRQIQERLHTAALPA

[3] = target: T3, ANGPTL8, endogenous in HepG2 cells (human (endogenous in HepG2)) (UniProt Q6UXH0); assay: co-IP; endogenous proteins in untransfected HepG2 cells, left unstimulated or treated with TNFα (50 ng/mL) for the indicated times; IP with anti-IKKγ or anti-ANGPTL8; also in ANGPTL8-RNAi and ANGPTL8-deficient cells; washes with 500 mM NaCl; immunoblot
T3 sequence: T1 sequence

[4] = target: IKKγ, endogenous in HepG2 cells (human (endogenous in HepG2)) (UniProt Q9Y6K9); assay: as above
[5] = target: T4, Angptl8, endogenous in mouse liver (mouse (endogenous in liver)) (UniProt Q8R1L8); assay: co-IP; liver lysates of C57BL/6 mice injected i.p. with LPS (3 mg/kg) for 0, 1 or 6 h; equal amounts of lysate of the animals of one time point mixed; immunoblot
T4 sequence: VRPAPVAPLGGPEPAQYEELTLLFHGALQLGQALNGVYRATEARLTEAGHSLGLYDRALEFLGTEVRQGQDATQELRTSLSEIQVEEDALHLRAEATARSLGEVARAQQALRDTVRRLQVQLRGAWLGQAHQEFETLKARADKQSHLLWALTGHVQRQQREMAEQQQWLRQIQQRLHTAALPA

[6] = target: recombinant ANGPTL8, purified (human) (UniProt Q6UXH0); assay: dynamic light scattering + far-Western, overlay or dot blot; purified recombinant ANGPTL8 incubated in solution; DLS at room temperature, scattering angle 90°; dot blots probed with anti-oligomer (A-11) and anti-fibril (OC) antibodies; oligomers and fibrils also seen by transmission electron microscopy; both purified

Molecule: IKKγ (NF-κB essential modulator, NEMO), Flag- or HA-tagged, overexpressed (from UniProt Q9Y6K9 1-419)
binding [1]: binds

Molecule: RIP1, endogenous in HepG2 cells (from UniProt Q13546 1-671)
binding [3]: binds

Molecule: p62, endogenous in HepG2 cells (from UniProt Q13501 1-440)
binding [4]: binds
binding [3]: binds

Molecule: IKKγ, endogenous in HepG2 cells (from UniProt Q9Y6K9 1-419)
binding [3]: binds

Molecule: Ikkγ, endogenous in mouse liver (from UniProt O88522 1-412)
binding [5]: binds

B1: recombinant ANGPTL8, purified (protein, UniProt Q6UXH0 22-198)
chain: T1 sequence
binding [6]: binds

B2: angiopoietin-like 8 (ANGPTL8), full length, Flag- or HA-tagged, overexpressed (protein, UniProt Q6UXH0 22-198)
chain: T1 sequence
binding [1]: binds

B5: IKKβ, Flag-tagged, overexpressed (protein, UniProt O14920 1-756)
chain: MSWSPSLTTQTCGAWEMKERLGTGGFGNVIRWHNQETGEQIAIKQCRQELSPRNRERWCLEIQIMRRLTHPNVVAARDVPEGMQNLAPNDLPLLAMEYCQGGDLRKYLNQFENCCGLREGAILTLLSDIASALRYLHENRIIHRDLKPENIVLQQGEQRLIHKIIDLGYAKELDQGSLCTSFVGTLQYLAPELLEQQKYTVTVDYWSFGTLAFECITGFRPFLPNWQPVQWHSKVRQKSEVDIVVSEDLNGTVKFSSSLPYPNNLNSVLAERLEKWLQLMLMWHPRQRGTDPTYGPNGCFKALDDILNLKLVHILNMVTGTIHTYPVTEDESLQSLKARIQQDTGIPEEDQELLQEAGLALIPDKPATQCISDGKLNEGHTLDMDLVFLFDNSKITYETQISPRPQPESVSCILQEPKRNLAFFQLRKVWGQVWHSIQTLKEDCNRLQQGQRAAMMNLLRNNSCLSKMKNSMASMSQQLKAKLDFFKTSIQIDLEKYSEQTEFGITSDKLLLAWREMEQAVELCGRENEVKLLVERMMALQTDIVDLQRSPMGRKQGGTLDDLEEQARELYRRLREKPRDQRTEGDSQEMVRLLLQAIQSFEKKVRVIYTQLSKTVVCKQKALELLPKVEEVVSLMNEDEKTVVRLQEKRQKELWNLLKIACSKVRGPVSGSPDSMNASRLSQPGQLMSQPSTASNSLPEPAKKSEELVAEAHNLCTLLENAIQDTVREQDQSFTALDWSWLQTEEEEHSCLEQAS
binding [1]: binds

Second part, the molecule after the results:

binding [1]: binds
Molecule: receptor interacting protein 1 (RIP1), Flag-tagged, overexpressed (from UniProt Q13546 1-671)

binding [2]: binds
binding [1]: binds
Molecule: p62, HA- or Flag-tagged, overexpressed (from UniProt Q13501 1-440)

binding [1]: no binding
B3: ANGPTL8 truncation mutant 71-C (domain or fragment, UniProt Q6UXH0 71-198)
chain: GRTIELLGQEVSRGRDAAQELRASLLETQMEEDILQLQAEATAEVLGEVAQAQKVLRDSVQRLEVQLRSAWLGPAYREFEVLKAHADKQSHILWALTGHVQRQRREMVAQQHRLRQIQERLHTAALPA

binding [1]: no binding
B4: ANGPTL8-Δ26–70 truncation mutant (protein, UniProt Q6UXH0)
chain: T2 sequence

binding [3]: binds
B6: IKKβ, endogenous in HepG2 cells (protein, UniProt O14920 1-756)
chain: B5 chain
